Reference: PubChem BioAssay AID1963576 (National Center for Advancing Translational Sciences (NCATS), 2024)
Hit rate of the full screen: of about 46,000 compounds, about 60 (0.1%) were called active. Another 3% or so got no clear call; they are omitted. Calls follow the shape of the dose curve; as a rule, active = well fitted inhibition curve with a large enough effect; inconclusive = small, poorly fitted or top-dose-only effect; inactive = no such curve, though single readings can be large or run the other way. This is one part of the list.

Test: Primary qHTS assay for Inhibitors of ovarian cancer metastasis using an organotypic tumor microenvironment (TME) model. Also: nearly all actives have a fitted effect of over 65% in size.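 As to activity change, negative = inhibition: plate controls were DMSO wells for no effect and tomatine positive control wells for full effect.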
Conditions: SKOV3ip1-GFP adhesion/invasion on 3D omental model, fluorescence; series mostly up to 45.8 µM; activity change, negative = inhibition: at the top concentration
Procedure, shortened: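 qHTS, 4-pt dose (0.36-46 umol/L); SKOV3ip1-GFP, 1,200 cells/well, no FBS; primary omental fibroblast/mesothelial co-culture 48 h pre-grown; 2 h RT + 16 h 37 C; PBS wash, 4% PFA; GFP count 488/509 nm.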

Activity change, negative = inhibition, inactive:
CCc1ccc(CNC(=O)c2sc3ncnc(N(C)C4CCCCC4)c3c2C)cc1 -10.2%, COc1ccc(-c2cc(-c3ccc(F)cc3)nc3c2COc2ccccc2-3)cc1 1.99%, Cc1nn(C)c2c1c(C(F)(F)F)cc(=O)n2CC(=O)NC(C)(C)C 7.4%, COc1ccc(CCCc2nnc(SCC(=O)Nc3ccc(Cl)cc3)o2)cc1 0.458%, CCOc1ccccc1C1Nc2ccccc2-c2nnc(SCc3ccccc3)nc2O1 (centres undefined) -3.98%, Cc1cccc(C(=O)Nc2nnc(S(=O)(=O)N3c4ccccc4CC3C)s2)c1 (centres undefined) -8.21%, Cc1cc(O)c(CN2CCN(c3ccc(F)cc3)CC2)c2oc(=O)cc(C)c12 -1.12%, COc1ccc(Br)cc1CNC(=O)c1ccc(-n2c(C)cc3c2CCC(C)C3)cc1 (centres undefined) -3.66%, CCOc1ccc(-c2nnc(SCC(=O)NCCc3ccccc3)nc2-c2ccc(OCC)c(OC)c2)cc1OC 0.725%, Cn1c(CN2CCCCC2)nc2cc(NC(=O)c3ccc(Cl)cc3)ccc21 4.12%, Cc1ccc2[nH]c3c(=O)n(CC(=O)N(C)Cc4ccccc4)ncc3c2c1 1.88%, CCOC(=O)c1cnc(NCc2ccc(Cl)cc2)c2ccccc12 -4.38%, CCOc1ccc(CCNC(=O)c2nn(-c3ccc(OC)cc3)c(=O)c3c2c2ccccc2n3C)cc1OCC 1.36%, CCn1c(=O)cc(OCC(=O)Nc2ccccc2Cl)c2ccccc21 1.99%, Cc1cnc(Nc2ccc(N3CCN(C)CC3)cc2)nc1Nc1cccc(S(=O)(=O)NC(C)(C)C)c1 -28.9%, CCN(CC)C(=O)c1ccccc1NC(=O)c1cccc(S(=O)(=O)N2CCC(C)CC2)c1 4.55%, O=C(NC1CCCCC1)/C(=C/c1ccc(Cl)cc1)NC(=O)c1ccccc1 -13.5%, Cc1cccc(N(C)c2nc3ccc(C)cc3n3nnnc23)c1 -6.79%, Cc1ccc(CNC(=O)C2CCN(c3ncnc4c3nc3n4CCCCC3)CC2)cc1 -0.773%, Cc1ccc(NC(CNS(=O)(=O)c2ccc(Cl)cc2)c2ccccc2)cc1 (centres undefined) -8.28%, N#Cc1cc2c(=O)n3ccccc3nc2n(-c2nnc(SCc3ccccc3)s2)c1=O 2.71%, Cc1ccc(C(=O)CSc2nnc3ccc4ccccc4n23)cc1 -7.46%, COc1cccc(CNC(=O)c2ccc(CS(=O)Cc3ccc(Cl)cc3)o2)c1 (centres undefined) 2.82%, O=c1oc2ccc3ccccc3c2cc1-c1nnc(Nc2cccc(F)c2)s1 1.1%, Cc1ccccc1CNC(=O)c1ccc2c(c1)N(Cc1ccccc1)CCS2 -5.12%, Cc1cccc(C)c1Nc1c(-c2ccccc2O)nc2ncccn12 -2.05%, Cc1ccc(CNC(=O)Cn2cc(C(=O)c3ccc(Cl)cc3)c(=O)c3ccc(C)nc32)cc1 -8.28%, CCCCn1c(=O)c2oc3ccccc3c2n(CC(=O)Nc2ccccc2OC)c1=O 0.247%, CCOC(=O)c1c(NC(=O)/C=C/c2ccc(OCC)cc2)sc2c1CCC2 1.57%, Oc1ccc(C=Cc2cc(O)cc(O)c2)cc1 1.64%, CNc1oc(/C=C/c2cc(OC)c(OC)c(OC)c2)nc1C#N 6.98%, Cc1ccc(Cl)cc1-n1ncc2c(N3CCC(C(N)=O)CC3)ncnc21 2.96%, Cc1cccc(OCCCCn2c(C3CC(=O)N(c4ccc(C)cc4C)C3)nc3ccccc32)c1 (centres undefined) -19.2%, O=C(CCn1c(=O)c2cccn2c2cccnc21)N1CCN(c2ccc(Cl)cc2)CC1 4.89%, Cc1ccc(S(=O)(=O)N2CCCc3cc(NC(=O)c4c(F)cccc4F)ccc32)cc1 -4.34%, CCc1ccc(C2=C(C)C(N3CCC(C(=O)NCc4ccc(C)o4)CC3)=NS2(=O)=O)cc1 5.89%, CCCCNC(=O)[C@@H](c1ccccc1)N1Cc2ccccc2C1=O 1.54%, Cc1ccc(C(=O)Nc2ccc(F)cc2)cc1S(=O)(=O)N1CCOCC1 3.19%, Cc1ccc(-n2c(=O)c3ccc(C(=O)NCc4ccccc4Cl)cc3n(CC(N)=O)c2=O)cc1 0.119%, CCOc1ccccc1NC(=O)CSc1nccn1Cc1ccc(F)cc1 2.01%, O=C(OCC1CCCO1)c1ccc2c(c1)N(Cc1ccccc1F)C(=O)c1ccccc1S2(=O)=O (centres undefined) 0.791%, Cc1ccc(NC(=O)C2CCN(c3ncccn3)CC2)cc1F 8.2%, COc1ccccc1OCCn1c(NC(=O)c2ccccc2)nc2ccccc21 2.54%, O=C(COc1cccc(Cl)c1)N1CCC(c2nc3ccccc3s2)CC1 -8.38%, COc1cc(OC)c(NC(=O)Nc2sc3nc4n(c(=O)c3c2C)CCC(C)CC4)cc1Cl (centres undefined) -30.5%, Cc1ccc(CCNC(=O)c2ccc(Cn3c(=O)c4cccn4c4cccnc43)cc2)cc1 -32%, COc1ccc(NC(=O)CSc2nc3ccccc3n2CC(=O)Nc2cccc(C)c2C)cc1 -13.5%, O=S(=O)(Nc1ccc(-c2ccc(N3CCCC3)nn2)cc1)c1ccccc1Cl 7.98%, O=C(O)c1cccc(NC(=O)c2cccc(S(=O)(=O)Nc3cccc(F)c3)c2)c1 -0.71%, N#Cc1c[nH]n2c(NC3CCCC3)c(-c3ccc(Br)cc3)nc12 0.55%, Cc1cc(C)cc(NC(=O)c2cc(S(=O)(=O)N3CCOCC3)cn2C)c1 2.52%, Cc1ccc(N2CCN(c3nc4ccccc4n4nnnc34)CC2)c(C)c1 4.25%, CCOC(=O)c1cccc(NC(=O)C2(S(=O)(=O)c3ccc(C)cc3)CC2)c1 3.23%, O=C(CSc1nc2c([nH]c3ccccc32)c(=O)n1-c1cccc(C(F)(F)F)c1)N1CCCC1 5.85%, COc1cn(CC(=O)Nc2ccc(C)cc2C)c(CN2CCCCC2)cc1=O -3.94%, Cc1cc2c(cc1S(=O)(=O)N1CCC(C(N)=O)CC1)OCC(=O)N2 8.62%, Cc1ccc(Nc2c(-c3ccc(N4CCOCC4)cc3)nc3ccc(Cl)cn23)cc1 3.94%, CCOc1ccc(C2c3c(oc4ccccc4c3=O)C(=O)N2Cc2ccc3c(c2)OCO3)cc1 (centres undefined) -17.3%, Cc1cccc(-c2nnn3c2nc(NCCC(C)C)c2ccccc23)c1 27.5%, COc1ccc(S(=O)(=O)NCC(c2ccc(N(C)C)cc2)N2CCCC2)cc1F (centres undefined) 0.532%, CCCNC(=O)C1CCC(Cn2c(=O)c3sccc3n(CC(=O)N3CCCC(C)C3)c2=O)CC1 (centres undefined) 4.22%, CCOc1cccc(C2c3c(oc4ccc(F)cc4c3=O)C(=O)N2CCOC)c1 (centres undefined) 8.63%, Oc1ccc(C2CCN(c3ccnc4ccccc34)CC2)cc1O 19%, Cc1ccc(Cl)cc1N1CCN(S(=O)(=O)c2ccc3oc(=O)c4ncn(C)c4c3c2)CC1 -3.58%, Cc1ccccc1Cn1cc(NC(=O)c2cc(-c3ccc(Cl)cc3)on2)cn1 1.57%, Cc1nn(-c2ccc(N3CCCC3)nn2)c(C)c1CCC(=O)NCc1ccc(F)cc1 -17.9%, CC(C)OCCCn1c(=O)c2ccccc2n2c(-c3ccc(F)c(F)c3)nnc12 24.6%, Cc1ccc(S(=O)(=O)c2nnn3c2nc(NCc2ccc(F)cc2)c2sccc23)cc1C 1.59%, CCCS(=O)(=O)N1CC(=O)N(c2ccccc2C)C(C)(C(=O)NC2CCCCC2)C1 (centres undefined) 3.68%, O=C(Nc1cccc(-c2nc3cc(Cl)ccc3o2)c1)c1ccc(F)cc1 4.22%, O=C(Cn1c(=O)n(Cc2ccc(F)cc2)c(=O)c2sc3ccccc3c21)NCc1ccccc1 36.6%, O=C(NCc1noc2ccccc12)N1CCN(c2ccccc2F)CC1 10.2%, O=C(CSC1=Nc2ccccc2C2=NC(Cc3ccccc3)C(=O)N12)Nc1ccccc1 (centres undefined) -11.6%

outcome, inactive:
CCc1ccccc1NC(=O)c1ccc2[nH]c(C)c(C)c2c1, CCOc1ccc(OCC)c(NC(=O)c2c(C)nn(-c3ccccc3)c2-n2cccc2)c1, Cc1ccccc1CN1C(=O)C(O)(CC(=O)c2cccc(Br)c2)c2ccccc21 (centres undefined), Cc1c(C(=O)NCc2ccccc2)oc2c1-c1[nH]ncc1CC2, COCCCn1c(=N)c(C(=O)NC2CCCC2)cc2c(=O)n3cc(C)ccc3nc21, CCCN(C(=O)Cn1nc(Cc2ccncc2)c2ccccc2c1=O)c1ccccc1C, O=C(Cc1ccc(F)cc1)NCCc1csc(-c2ccc(C(F)(F)F)cc2)n1, O=C(O)CCc1ccc(-c2ccc(Cl)cc2)n1-c1cccc(C(F)(F)F)c1, CCOC(=O)C1CCCN(S(=O)(=O)c2cc(-c3cc(C)no3)ccc2C)C1 (centres undefined), O=C(CCCn1c(=O)c2cccn2c2cccnc21)Nc1ccccc1Br, CCN1CCOC(=O)C1CC(=O)Nc1cc(Cl)ccc1OC (centres undefined), Cc1nn(CC(=O)NCc2ccccc2Br)c(=O)c2cc3occc3n12, CCn1c(CNC(=O)C23CC4CC(CC(C4)C2)C3)nnc1SCC(=O)Nc1ccc(OC)cc1, Cc1ccc(-n2c(SCC(N)=O)nc3c(oc4ccccc43)c2=O)cc1, CCOc1ccccc1NC(=O)C(C)n1nnc2sc3c(c2c1=O)CCCC3 (centres undefined), COc1cccc(C(=O)Nc2ccccc2SCc2cc(=O)c3cccc(C)c3[nH]2)c1, COc1cccc(C(=O)Nc2ccc(-c3nc4ccc(C)cc4s3)cc2)c1OC, CC(=O)c1ccc(NC(=O)/C=C/c2ccc(C)o2)cc1, Cc1cc(C)c(NC(=O)Cn2nnc(-c3nc(-c4ccncc4)no3)c2N)c(C)c1, CC(=O)C1=C(c2ccc(C)cc2)N(C(C)=O)n2c(nnc2-c2ccccc2)S1, Cc1[nH]c2ccc(C(=O)NCCc3ccccc3Cl)cc2c1C, Cc1cccc(NC(=O)CN2C(=O)COc3ccc(S(=O)(=O)Nc4ccccc4)cc32)c1C, Cc1cccc(OCC(=O)NCC2(N3CCN(C)CC3)CCCCC2)c1, COc1ccc(Nc2cc(C(=O)NCc3ccccc3)c3ccccc3n2)cc1, CCC1CN(C(=O)N2CCC(C(=O)NCc3ccc(C)o3)CC2)c2ccccc2O1 (centres undefined), Cc1ccc(OCCSc2nc3ccccc3n2CC(=O)N2CCCCC2)c(C)c1
